# PubChem BioAssay AID686979 (National Center for Advancing Translational Sciences (NCATS), 2013)
# Screen size: about 420,000 compounds; about 50,000 (12%) were called active. The inconclusive results got no clear call from the source; some entries with a clear call stand among them for comparison. Calls come from the whole dose curve; as a rule, active = well fitted inhibition curve with a large enough effect; inconclusive = small, poorly fitted or top-dose-only effect; inactive = flat fitted curve, though single readings scatter. No potency is given beside an inconclusive call; the fits are too rough.
# Assay: qHTS for Inhibitors of human tyrosyl-DNA phosphodiesterase 1 (TDP1): qHTS in cells in presence of CPT; note: nearly all actives have a fitted effect of over 55% in size
# Conditions: chicken DT40 Tdp1-/-;hTDP1 cells + 20 nM CPT, ATP luminescence, 48 h; activity change, negative = growth inhibition: at 46.2 µM (top of the series) unless noted
# In short: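 Chicken DT40 Tdp1-/- cells stably complemented with human TDP1 were seeded at 400 cells/well in medium containing 20 nM camptothecin, exposed to pin-transferred compounds, and grown at 37 °C for at least 48 hr. Viability was read as ATP luminescence.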
# % is set by controls: 0 for no effect and ±100 for the full control effect; potency is the fitted concentration of half-maximal effect; tags give direction and shape of the fitted curve.
Structure (SMILES),Potency,"activity change, negative = growth inhibition"
Cc1ccc2[nH]c(C(=O)NCc3nc(-c4cccc(NC(=O)c5cc(C)oc5C)c4)oc3C)cc2c1,"inconclusive [inhibitor, single point]",
Cc1ccc(CNC(=O)CS(=O)(=O)c2cn(CC(=O)N3CCOCC3)c3ccccc23)cc1,,inactive: -0.173%
Cc1cn([C@H]2C[C@H](O)[C@@H](CNCc3cc(Br)ccc3OCc3ccccc3)O2)c(=O)[nH]c1=O,"inconclusive [inhibitor, single point]",
Cc1cn([C@H]2C[C@H](O)[C@@H](CCC(=O)NCCc3ccc4ccccc4c3)O2)c(=O)[nH]c1=O,,inactive: -9.24%
COc1ccc(-c2cc(C(=O)NCC3CCCO3)c3ccccc3n2)cc1 (stereo not given),"inconclusive [inhibitor, single point]",
Cc1ccc(OCCSc2nc3ccccc3n2CC(=O)O)cc1C,,inactive: 7.38%
CCOC(=O)COc1ccc(C)cc1C(=O)c1ccn2nc(-c3ccc(Cl)cc3)cc2n1,,inconclusive: -17.4% [inhibitor]
CC1=NN(C(=O)c2c(Br)c(C)nn2C)C(O)(C(F)(F)F)C1 (stereo not given),active: 1.16 µM,
COC(=O)[C@@H](NC(=O)NC1CCN(Cc2ccccc2)CC1)C(C)C,,inactive: -4.57%
CN(C)c1cccc(CNC(=O)c2ccc3nc([C@@H]4O[C@H](CO)[C@H](O)[C@H](O)[C@H]4O)[nH]c3c2)c1,,inactive: -17.2%
COC(=O)C1=CN(Cc2ccc(OC)c(OC)c2)C=C(C(=O)OC)C1c1cccc(F)c1,active: 16.4 µM,
CC(C)Oc1cccc(NC(=O)C2(C)CCCN2C(=O)C(C)C)c1 (stereo not given),"inconclusive [inhibitor, full curve, poor fit]",
CC(C)(C)c1ccc2cc(F)cc(F)c2n1,,inactive: -11.8%
CN(C)c1ccc(SC#N)cc1,,inactive: -4.39%
O=C(OCc1ccccc1)/C(=C/c1cccc(Br)c1)NC(=O)c1ccco1,"inconclusive [inhibitor, single point]",
Cc1sc2ncn(CC(=O)N(C)c3ccc(C(C)C)cc3)c(=O)c2c1S(=O)(=O)N1CCC(C)CC1,active: 23.1 µM,
CCOc1ccc(C(=O)NCc2ccco2)cc1,,inconclusive: -30.1% [inhibitor]
O=C(c1ccc(Br)o1)N(c1ccc(Br)cc1)C1C=CS(=O)(=O)C1 (stereo not given),,inconclusive: -30.9% [inhibitor]
COc1ccc(CN(C)C(=O)c2cc(-c3ccccc3)nc3ccc(C)cc23)c(OC)c1,active: 5.8 µM,
Clc1ccc(CN(Cc2ccccc2)C(c2cccs2)c2nnnn2C2CCCC2)cc1 (stereo not given),active: 14.6 µM,
C[C@]12C(=O)N(c3ccc(Cl)cc3)C(=O)N1[C@H]1c3ccccc3OC[C@@H]1[C@H]2c1ccccc1,"inconclusive [inhibitor, full curve]",
COC(=O)c1c(NC(=O)CSc2nnc(-c3ccco3)n2Cc2ccccc2)sc(C)c1C,"inconclusive [inhibitor, single point]",
Cc1ccc(NS(=O)(=O)c2ccc3nc(-c4ccccc4)[nH]c3c2)c(Br)c1,active: 14.6 µM,
O=C(N/N=C/c1cccc(O)c1)c1cc(C2CC2)nc2ccccc12,"inconclusive [inhibitor, single point]",

Structure (SMILES),Potency,"activity change, negative = growth inhibition"
COC(=O)c1cc(N=Nc2c(C)[nH]c3ccccc23)cc(C(=O)OC)c1,"inconclusive [inhibitor, single point]",
Cc1csc(CNC(=O)c2ccc(OC3CCN(CCc4ccccc4)CC3)cc2)n1,"inconclusive [inhibitor, partial curve]",
CCCC(=O)N1CCC1(C)C(=O)Nc1cccc(F)c1 (stereo not given),,inactive: -24.9%
COc1ccccc1-c1cc(C(=O)Nc2cc(C)on2)no1,,inactive: -6.98%
CCCOc1ccc(CC(=O)NNC(=S)Nc2ccccc2)cc1Br,"inconclusive [inhibitor, single point]",
COC(=O)c1c(C)[nH]c(C(=O)OCC(=O)c2ccc(C)s2)c1C,"inconclusive [inhibitor, single point]",
C[C@@H]1O[C@@H](O[C@H]2[C@H](O[C@H]3C[C@]4(C)C(C[C@@H](O)C5C([C@]6(C)CC[C@@H](C(C)(C)O)O6)CC[C@]54C)[C@@]4(C)CC[C@H](O)C(C)(C)C34)O[C@H](CO)[C@@H](O)[C@@H]2O)[C@H](O)[C@H](O)[C@H]1O (stereo not given in full),,inactive: -7.23%
CCOC(=O)c1c(C)oc2c1c1c(c3ccccc32)OCN(Cc2ccccn2)C1,"inconclusive [inhibitor, single point]",
Cn1nccc1C(=O)NC1CCCc2c1cnn2-c1ccccc1F (stereo not given),active: 4.61 µM,
O=C(C1COc2ccccc2O1)N1CCN(Cc2ccc(Br)cc2F)CC1 (stereo not given),"inconclusive [inhibitor, partial curve]",
CC1(C(=O)Nc2ccc(F)c(Cl)c2)Cc2c(-c3ccccc3)ccnc2O1 (stereo not given),"inconclusive [inhibitor, single point]",
O=c1c2sc3nc(N4CCOCC4)c4c(c3c2ncn1-c1ccccc1)CCCC4,"inconclusive [inhibitor, single point]",
CC(=O)Nc1ccc(NS(=O)(=O)c2cccc3nonc23)cc1,,inactive: -2.88%
CCCn1c(=O)c2sccc2n2c(CCCC(=O)N3CCN(c4cccc(Cl)c4)CC3)nnc12,"inconclusive [inhibitor, single point]",
CCc1ccccc1NC(=S)N(CCN1CCOCC1)Cc1ccccc1F,,inconclusive: -30.9% [inhibitor]
Cc1ccc(Nc2nnc(SC(C)C(=O)NCC3CCCO3)s2)cc1 (stereo not given),,inconclusive: -33.4% [inhibitor]
CCCCN(CC)CCCNC(=O)c1cn(CC)c2ccc(S(=O)(=O)N3CCc4ccccc4C3)cc2c1=O,active: 16.4 µM,
COc1cccc(-c2nnc(NC(=O)c3ccc4ncsc4c3)o2)c1,active: 16.4 µM,
Cc1cc(N/N=C2\CC(C)CC(C)(C)C2)nc2ccccc12 (stereo not given),"inconclusive [inhibitor, single point]",
O=C(/C=C/c1ccc(Cl)cc1)N1CCC(c2nc3ccccc3o2)CC1,"inconclusive [inhibitor, single point]",
O=C(Nc1cccc(S(=O)(=O)N2CCCCC2)c1)C1CC(=O)N(Cc2ccccc2)C1 (stereo not given),"inconclusive [inhibitor, single point]",
Cc1cccc(OCCC(=O)Nc2ccc(F)c(Cl)c2)c1,,inactive: -0.329%
COc1ccc(/C=N/N=C2/NC(=O)C(c3ccccc3)(c3ccccc3)S2)cc1,"inconclusive [inhibitor, single point]",
Cc1cc(C(=O)NC2CCCC(C)C2C)c2ccccc2n1 (stereo not given),"inconclusive [inhibitor, single point]",

Structure (SMILES),Potency,"activity change, negative = growth inhibition"
Cc1ccc(C)c(Cn2nc(-c3ccccc3)ccc2=O)c1,"inconclusive [inhibitor, single point]",
COc1ccc(CCNCc2c(C(=O)O)c(C)n(Cc3cccc(Cl)c3)c2C)c(OC)c1OC,"inconclusive [inhibitor, single point]",
CCc1ccccc1NC(=O)CCC(=O)N1CC(C)Oc2ccc(C)cc21 (stereo not given),"inconclusive [inhibitor, single point]",
CN(CC(O)COc1c(F)cc(Br)cc1F)C1CCCCC1 (stereo not given),,inactive: 3.37%
Cc1ccc(-c2nn(-c3ccccc3)cc2NC(=O)c2ccccc2)cc1,active: 20.6 µM,
COc1ccc(NC(=O)OC(CN2CCCCC2)C(F)(F)F)cc1 (stereo not given),,inactive: 3.73%
CCc1cc2c(cc3c(=O)n(CC(=O)N4CCN(c5cccc(C)c5C)CC4)nc(CC)n32)s1,,inactive: 0.218%
CCOc1ccc(-n2c(SCC(=O)Nc3ccc(CC)cc3)nc3n[nH]c(C)c3c2=N)cc1,"inconclusive [inhibitor, partial curve]",
COc1ccccc1OCC(=O)Nc1nc(-c2ccc(S(=O)(=O)N3CCOCC3)cc2)cs1,active: 20.6 µM,
O=C(NCc1ccccn1)c1cc(Cl)ccc1OCc1ccccc1,"inconclusive [inhibitor, single point]",
CN(c1ccccc1)S(=O)(=O)c1cc(C(=O)OCC(=O)N2CCN(C(=O)c3ccco3)CC2)ccc1Cl,"inconclusive [inhibitor, single point]",
CSc1ncccc1C(=O)OCc1cccc([N+](=O)[O-])c1,,inactive: 1.09%
Cc1ccc(C)c(N2CCN(S(=O)(=O)c3ccc(C(=O)N(C)C)s3)CC2)c1,active: 18.4 µM,
CCOc1ccc2nc(SCC(=O)Nc3ccc4c(c3)OCO4)sc2c1,"inconclusive [inhibitor, single point]",
CN(Cc1ccccc1)C(=O)CN1C(=O)NC2(CCCCCCC2)C1=O,,inactive: -15.3%
COC(=O)c1ccc(NC(=O)c2ccc(NC(=O)C3CCCO3)cc2)cc1 (stereo not given),"inconclusive [inhibitor, single point]",
COc1cc(C(=O)OCc2cccc(S(=O)(=O)N3CCOCC3)c2)ccc1OCC(C)C,,inactive: -21.6%
COc1ccc(/C=C/c2cc(C(F)(F)F)[nH]c(=O)n2)cc1OC,,inactive: -5.66%
COC(=O)c1cc(S(=O)(=O)N2CCN(c3ccccc3F)CC2)c[nH]1,"inconclusive [inhibitor, single point]",
Cc1ccccc1CNC(=O)CCC(=O)N1CCSc2ccccc21,"inconclusive [inhibitor, single point]",
CCOc1ccccc1CNS(=O)(=O)c1cc2c(cc1C)NC(=O)CO2,"inconclusive [inhibitor, single point]",
CS(=O)(=O)c1cccc(C(=O)Nc2ccc(S(=O)(=O)N3CCCCC3)cc2)c1,active: 10.3 µM,
